Structures are written as SMILES. Over roughly 110,000 compounds, “z-score” has its median near -0.1; the highest 2% begin near 2. The list shows a part of the results. Active and inactive are the calls of the source.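 How the source made its calls: active means z-score in the third read window above 3 or below -3; inactive means the rest.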

This assay has as its target Metabotropic glutamate receptor 8 (Rattus norvegicus) (UniProt P70579). The assay is described as follows: mGluR8 Gi/Go-coupled signaling modulation – cell-based, rat, thallium flux, HTS, primary screen (AID 488969). To be noted: HEK293 rat mGluR8, GIRK (G protein-gated inwardly rectifying potassium channel) thallium flux, FluoZin2; at 10 µM; stronger effect = higher value; submaximal glutamate (EC20) added with thallium.
UniProt P70579, sequence (P70579 whole entry, looked up): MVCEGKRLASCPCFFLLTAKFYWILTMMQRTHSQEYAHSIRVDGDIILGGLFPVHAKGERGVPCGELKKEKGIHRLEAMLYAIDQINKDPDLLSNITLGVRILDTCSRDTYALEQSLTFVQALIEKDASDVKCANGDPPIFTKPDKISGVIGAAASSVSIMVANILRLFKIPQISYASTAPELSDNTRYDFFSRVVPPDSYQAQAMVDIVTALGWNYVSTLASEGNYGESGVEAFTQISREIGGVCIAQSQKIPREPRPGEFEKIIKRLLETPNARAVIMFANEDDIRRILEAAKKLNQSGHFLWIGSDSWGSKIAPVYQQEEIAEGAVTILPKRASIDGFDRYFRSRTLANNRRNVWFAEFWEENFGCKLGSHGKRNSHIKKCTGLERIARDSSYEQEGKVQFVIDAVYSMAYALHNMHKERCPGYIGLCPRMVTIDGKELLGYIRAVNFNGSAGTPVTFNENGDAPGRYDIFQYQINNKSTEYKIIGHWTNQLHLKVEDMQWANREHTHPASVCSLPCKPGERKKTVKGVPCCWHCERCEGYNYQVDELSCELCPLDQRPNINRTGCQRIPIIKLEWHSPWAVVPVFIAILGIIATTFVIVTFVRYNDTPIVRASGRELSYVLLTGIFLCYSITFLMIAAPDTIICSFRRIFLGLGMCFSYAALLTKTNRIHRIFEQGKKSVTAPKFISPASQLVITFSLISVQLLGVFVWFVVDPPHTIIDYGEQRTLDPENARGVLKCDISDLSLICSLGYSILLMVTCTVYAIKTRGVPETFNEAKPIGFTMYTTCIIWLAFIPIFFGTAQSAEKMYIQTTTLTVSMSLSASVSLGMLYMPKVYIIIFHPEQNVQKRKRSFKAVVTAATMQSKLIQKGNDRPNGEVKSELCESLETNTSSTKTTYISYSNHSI
The compound `Cc1cccc(NC(=O)c2cc(Cl)nc3ccccc23)c1` showed a z-score of -0.228. As to `COc1ccc(C(c2c(O)nc(SC)n(C)c2=O)c2c(O)nc(SC)n(C)c2=O)cc1O`, the z-score was -0.292. Then `CCCCNCc1cc(Br)c(OCC(=O)N2CCOCC2)c(OC)c1`, with -0.31; and `COC(=O)c1sc2nc(C)c([N+](=O)[O-])c(C)c2c1N`, with -0.272; and `CCNC(=O)/C(C#N)=C/c1c(N2CC(C)OC(C)C2)nc2ccccn2c1=O` (stereo not given), with -0.338.

With `Cc1occc1-c1nnc(SCC(=O)c2c(N)n(Cc3ccccc3)c(=O)n(C)c2=O)n1C`, the z-score was -0.00309. Take `CC(=O)NC(CCS(C)(=O)=O)C(=O)Nc1cccc2ccccc12` (stereo not given): the z-score turned out to be 0.39. `COn1c(C)c(C(C)=O)c2c3no[n+]([O-])c3ccc21` yielded a z-score of 0.967. The figure for `N#CCC1c2ccccc2CCN1C(=O)Nc1cccc(Cl)c1` (stereo not given) is -0.443. Then `O=C(Nc1ccc(N2CCOCC2)c(Cl)c1)c1ccc(Br)o1`, with 0.575; and `Cc1noc(C)c1C(=O)N1CCN(Cc2ccccc2)CC1`, with 0.378; and `CCCNC(=O)NCc1ccc(N2CCCC2=O)cc1`, with 0.113.

The compound `COc1ccc(-c2cn3c(n2)CCC3)cc1` returned a z-score of -0.12.

`Cc1cccc(NC(=O)CSc2ccc(-c3ccco3)nn2)c1C`: the z-score is 0.521.

`CCN1C(=O)C2(C(C#N)=C(N)Oc3n[nH]c(C(C)C)c32)c2ccccc21` (stereo not given) returned a z-score of -0.0791. `O=C(NCCN1CCOCC1)c1ccc2ccccc2c1` gave a z-score of 0.278. The figure for `COc1ccccc1OCCNC(=O)c1ccccc1C` is -0.299. The figure for `CCOc1cc(C(=O)NC(=S)Nc2cccnc2)cc(OCC)c1OCC` is -0.0263; for `CCOC(=O)c1c(-c2ccccc2Cl)csc1NC(=O)c1cc(S(=O)(=O)N2CCOCC2)ccc1C` it is 0.00234.

With `Cc1ccc(-n2c(C)cc(/C=C3/C(=N)N4C(c5ccccc5)=CSC4=NC3=O)c2C)cc1`, the z-score is -0.126. The figure for `C/C(=N\NS(C)(=O)=O)c1ccccc1` is -0.114; for `CCc1cccc(C)c1N(C(=O)Cn1c(COC)nc2ccccc21)C(C)COC` (stereo not given) it is -0.328; for `O=C1NCCN1Cc1ccc(F)cc1` it is -0.0461. Regarding `CC(C)C(NC(=O)c1ccc(S(=O)(=O)N2CCOCC2)cc1)c1nc2ccccc2[nH]1` (stereo not given), the z-score was determined as 1.1. Then `CCOC(=O)c1ccc(COC(=O)c2ccc(-c3nnc(-c4ccccc4)o3)cc2)o1`, with 0.116; and `CCOc1ccc2nc(NCCNS(=O)(=O)c3ccccc3)c(C#N)cc2c1`, with -0.304. `Cc1nn(-c2ccccc2)c(Cl)c1/C=N/NC(=O)OC(C)(C)C` registered a z-score of -0.394. As for `Cn1nccc1C(=O)Nn1cnnc1`, the z-score stood at 0.137.

Compound `Cc1ccc(NC(=O)C(CC(C)C)NC(N)=O)cc1Cl` (stereo not given) displayed a z-score of 0.139. The figure for `COc1cc(S(=O)(=O)N2CCC(N3CCCCC3)CC2)ccc1-n1cnnn1` is 0.00551; for `C=CCn1c(=N)n(CC(O)COc2ccccc2OC)c2ccccc21` (stereo not given) it is 1.12. Then `COc1cc(C2C(C#N)=C(N)Oc3n[nH]c(C)c32)ccc1OC(=O)c1ccccc1` (stereo not given), with -0.446; and `COc1ccc2c(c1)c1nc3ccccc3nc1n2CCn1c(=O)oc2ccccc21`, with 0.00373; and `O=c1[nH]c(CS(=O)(=O)c2ccccc2)nc2ccccc12`, with active: 3.08. `O=C(Oc1cccc(C(=O)N2CCOCC2)c1)c1ccc(Br)cc1` came in with a z-score of 0.508. Compound `CN(CCc1ccccn1)C(=O)Nc1ccc(F)cc1` gave a z-score of -1.46.

In the case of `Cc1nn(CCc2n[nH]c(=S)n2-c2ccc(F)cc2)c(C)c1[N+](=O)[O-]`, the z-score was -0.132. The figure for `C=CCn1c(-c2csc(-c3ccc(Cl)cc3)n2)n[nH]c1=S` is 2.89; for `COc1cccc(NC(=O)Cn2c(=O)n(CC3CCCO3)c(=O)c3ccccc32)c1` (stereo not given) it is -0.419; for `CCS(=O)(=O)NCCc1ccc(OC)c(OC)c1` it is 0.0325. `COC(=O)c1nc2n(n1)C(c1ccc(OC)c(OC)c1)C(C(=O)OC1CCCCC1)=C(C)N2` (stereo not given) yielded a z-score of -0.853. The figure for `COc1ccc(OC)c(NC(=O)C23CC4CC(C2)CC(n2cnc(Br)n2)(C4)C3)c1` is 0.992; for `Cc1c(/C(O)=C2/C(=O)C(=O)N(Cc3cccnc3)C2c2cccs2)cnn1-c1ccccc1` (stereo not given) it is 0.632. The compound `O=C(NCc1ccc2c(c1)OCO2)C1CC(c2cccc(Br)c2)=NO1` (stereo not given) came in with a z-score of -0.0926. The figure for `CC(=O)N1CCC(N(CCCOC(C)C)C(=O)Nc2ccc(Cl)cc2)CC1` is -0.311; for `O=C(NNC(=O)c1cc2cc3ccccc3nc2s1)c1cccc(C(F)(F)F)c1` it is 0.241; for `O=C(COC(=O)Cc1c[nH]c2ccccc12)Nc1cccc2ccccc12` it is 0.055. Then `O=c1nc(NCc2ccccc2Cl)cn[nH]1`, with 0.66. With `O=S(=O)(c1cnc[nH]1)N1CCN(c2ccccc2)CC1`, the z-score was determined as 0.277. Then `NC(=O)C1CCN(C(=O)c2ccc(CS(=O)(=O)c3c(Cl)cccc3Cl)o2)CC1`, with -0.074. Then `CC(C)CCN1CC(O)=C(c2nc(-c3ccc(Cl)cc3)cs2)C1=N`, with 0.053; and `CCC(C)(C)NC(=O)C(OC(=O)c1ccco1)c1ccccc1OC` (stereo not given), with -0.233. `Cc1ccccc1CCN(C(=O)Cn1nnc2ccccc21)C(C(=O)NC(C)(C)C)c1ccsc1` (stereo not given) displayed a z-score of 0.0716. The figure for `COc1ccccc1NC(=O)CN1CCN(CC(=O)Nc2cc(NC(C)=O)ccc2OC)CC1` is -0.411; for `O=C(CS(=O)(=O)Cc1ccccc1)Nc1nc2c(s1)CCCC2` it is 0.14.

`O=C(NCc1cccnc1)c1cccc(F)c1` showed a z-score of -0.0596. The figure for `COc1ccccc1N1CCN(C(=O)c2cc(-c3ccc(Cl)cc3)on2)CC1` is 0.953; for `COC(=O)COc1cccc(NC(=O)c2ccc(C)cc2)c1` it is -0.0433.

For the compound `CS(=O)(=O)c1nc(-c2ccccc2)c(-c2ccccc2)[nH]1`, the z-score was -0.431. The figure for `Cc1nn(CC(=O)OC(C)C(=O)Nc2ccccc2[N+](=O)[O-])c(C)c1[N+](=O)[O-]` (stereo not given) is -0.0274; for `CCc1c(C(=O)N2CCOCC2)csc1C` it is 0.547. The figure for `O=S(=O)(NCC(c1ccco1)N1CCN(c2ccccc2F)CC1)c1ccc2c(c1)OCCO2` (stereo not given) is -0.722; for `Cc1occc1C(=O)Nc1ccc2c(c1)OCCO2` it is 0.341; for `COCCNC(=O)/C(C#N)=C/c1cccc(NC(=O)c2ccccc2Cl)c1` it is -0.602. The figure for `COc1cc(OC)cc(C(=O)NNC(=O)NC2CCCCC2)c1` is -0.0486; for `CCOc1ccc(N(CC(=O)N2CC=C(c3ccccc3)CC2)S(=O)(=O)c2c(C)noc2C)cc1` it is -0.285; for `Cn1c(Sc2ccc(Br)cc2)c(C=O)c2ccccc21` it is -0.409. `O=C(N/N=C/c1ccccn1)c1cc(-c2ccc3ccccc3c2)n[nH]1` showed a z-score of 0.0367. Consider `Cn1c(=N)n(CC(O)c2ccco2)c2ccccc21` (stereo not given), for which the z-score is -0.143. The figure for `N#C/C(=C/C=C/c1ccccc1)C(=O)Nc1ccccc1` is 0.0142; for `O=C(Oc1ccccc1)N1CCN(c2ccc(F)cc2)CC1` it is -0.29.

`O=C(CSc1nnc(-c2ccccc2)n1-c1ccccc1)N1c2ccccc2Sc2ccccc21` registered a z-score of -1.52. The figure for `Cn1cc(CNC(=O)C2CCCCC2)cn1` is -0.556; for `O=C(Nc1nc2ccccc2s1)c1cc(-c2ccccc2)nn1-c1ccccc1` it is 1.18; for `COc1ccc(CC(=O)N(CC2CCCO2)c2nc3ccccc3s2)cc1` (stereo not given) it is -0.134. Then `CCN(C(C)=O)c1cccc2ccccc12`, with 0.317; and `CCCOc1cccc(C(=O)NC(=S)Nc2cccc(NC(=O)c3ccccc3Cl)c2)c1`, with 0.249; and `O=C(Cn1[nH]c(=O)c2ccccc2c1=O)NC1CCCCCC1`, with 0.0122. Then `CC/C(=N\NC(=O)c1cc(C)nc2ccccc12)c1ccc(C)s1`, with -0.17; and `CN(CCC#N)S(=O)(=O)c1ccc2c(c1)c(=O)n(C)c(=O)n2C`, with -0.372. On to `Cc1nc2ccc(NC(=O)Cc3ccc4c(c3)OCCO4)cc2s1`, for which the z-score came to 0.0176. The figure for `CC(=O)c1c(C)[nH]c(C(=O)CSc2nc3ccccc3c(=O)n2CCCN2CCOCC2)c1C` is 0.749; for `O=C(NCc1ccc2c(c1)OCO2)c1cc(-c2ccccc2Cl)on1` it is -0.432.

`Cc1cc(C)nc(N(C#N)Cc2cccc3ccccc23)n1`: the z-score is -1.03. Then `Cc1c(C(=O)Nc2nnc(SCc3ccccc3Cl)s2)cccc1[N+](=O)[O-]`, with -0.21; and `CC1CN(S(=O)(=O)c2cccc(C(=O)Nc3ccc4c(c3)CCC4)c2)CC(C)O1` (stereo not given), with -0.053. `Cc1cc(C)c2c3c(cn2n1)c(=O)n(C)c(=O)n3C` returned a z-score of 0.576. In the case of `CCCCCN(C(=O)COC(=O)c1ccc(Br)o1)c1c(N)n(CCCC)c(=O)[nH]c1=O`, the z-score is -0.0299. `O=C(CN1CCCCC1)Nc1cccc2c1OCO2` came in with a z-score of -0.0222. The figure for `Cc1cc(NC(=O)c2ccco2)ccc1NC(=O)Cc1cccs1` is -0.307; for `NC(=S)N=Nc1c(O)[nH]c2ccc(F)cc12` it is 1.48. Then `CCOC(=O)C1=C(CN2CCSCC2)NC(=O)NC1c1cc(C)ccc1C` (stereo not given), with -0.515; and `O=[N+]([O-])c1cc(-c2cnc3ccccc3n2)ccc1Oc1ccc(Cl)cc1`, with 0.419. Then `N/C(=N\OC(=O)c1ccc(Cl)c(Cl)c1)c1cccnc1`, with -0.145. Compound `COCc1nc(-c2ccc(-c3ccccc3)nc2OC)no1` yielded a z-score of 0.212. On to `Cc1c([N+](=O)[O-])cc(C(=O)N2CCOCC2)cc1[N+](=O)[O-]`, for which the z-score was -0.241. The figure for `COc1ccccc1N1CCN(c2nc3ccccn3c(=O)c2C=O)CC1` is -0.197. Then `N#Cc1c(N)c(C#N)c(-c2ccc(O)cc2)c2c1CCCC2`, with -0.574; and `CCN(CC)CCN(Cc1cc2cc(C)ccc2[nH]c1=O)C(=O)Nc1ccccc1OC`, with 0.12; and `CCOC(=O)c1ccc(NC(=S)NC(=O)COc2ccccc2)cc1`, with active: 3.05. `CCc1ccccc1NC(=O)c1cnc2scc(C)n2c1=O` came in with a z-score of -1.42. Then `COc1ccc(S(=O)(=O)N2CCC(C(=O)Nc3ccc(OC)c(OC)c3)CC2)cc1C`, with 0.0355. The figure for `Cc1cc2ccccc2nc1SCC(=O)Nc1nc(-c2ccccc2)cs1` is -0.238; for `Cc1cccc(C(=O)Nc2sc(C)c(-c3ccccc3)c2C#N)c1` it is -0.223. The figure for `COc1ccccc1C1=Nc2cccc3cccc(c23)N1` is -0.248. As to `Cc1ccc(-n2c(SCc3cn4ccsc4n3)nc3ccccc3c2=O)cc1`, the z-score is -2.14. Then `O=C(Nc1cccnc1)c1ccc(Br)s1`, with -0.00938; and `Cc1ccc(/C=N/NC(=O)c2ccoc2C)s1`, with 0.516; and `COCCN=c1scc(-c2ccccc2)n1/N=C/c1c[nH]c2ccccc12`, with 2.05.

Turning to `COc1cc(S(=O)(=O)NCc2ccccc2)ccc1Br`, the z-score was -0.127.

(Values after PubChem BioAssay AID488969 (Vanderbilt High Throughput Screening Facility, 2010).)
